The source of these data is the RNAGym collection of RNA variant scans (doi:10.7554/elife.90254).

The labels stand for the following.
B1: LINE1-mini (parent)
chain: GGCAGAGCUCAACACAGCGUGGCAAAGUGGCUGUGGCUAGACUGCC

Read counts are not given, so values of variants with three or more changes are uncertain.

The data set covers variants of B1. The data set can be described thus: self-cleavage, relative activity (ratio to wild type); higher = more cleavage; in vitro, sequencing; the parent is a self-cleaving ribozyme.
For G22C C31G U32G, the self-cleavage was 0.05.

With A24C A25G C42G, the self-cleavage stood at 0.07.

As for C23U G29U A39C C42A, the self-cleavage stood at 0.08.

G22A A26U G27A: the self-cleavage is 0.67.

For the variant C23A G27C C46G, the self-cleavage was determined as 0.17.

On to C23U G36A A39C, for which the self-cleavage was 0.09.

In the case of C23A C37A U38A C42U, the self-cleavage stood at 0.04.

On to A24C A26C U34A U38A A41G, for which the self-cleavage worked out at 0.13.

In the case of G21U C37A U43G, the self-cleavage worked out at 0.

Consider G22C C23A G33U, for which the self-cleavage was found to be 0.06.

Regarding G22A C23A U34A G40U C45G, the self-cleavage was 0.06.

C23U U28G G30A: the self-cleavage was 0.63.

With C23U G30A G36U G40A G44C, the self-cleavage was determined as 0.07.

For C23U A25G C31U U32C, the self-cleavage is 0.14.

Consider G21C C23A G36U G40U C46G, for which the self-cleavage is 0.94.

Take G22U C31G C45A: the self-cleavage amounted to 0.02.

Take G21U G29U U38A: the self-cleavage is 0.15.

G22C U34G G35A: the self-cleavage stood at 0.02.

Take G22A G36C U43A: the self-cleavage came to 0.03.

Turning to C23G A26C G30U C31A G40U, the self-cleavage came out at 0.01.

In the case of G22U A24G C46G, the self-cleavage is 0.49.

For the variant C23U A24U G36U U38A, the self-cleavage turned out to be 0.02.

Consider G22U U28G G29C C42A, for which the self-cleavage stood at 0.12.

As to G21U G27C G29C, the self-cleavage was found to be 1.14.

For C23G A24U A26U U38A C42U, the self-cleavage stood at 0.34.

On to C23U G27A G44C, for which the self-cleavage came out at 0.29.

For G21U G22U U38C, the self-cleavage came out at 1.1.

For the variant G22U U28G U32A, the self-cleavage was found to be 0.04.

For the variant G21U A26U C45G, the self-cleavage amounted to 0.07.

In the case of C23A U32C U34A C37U, the self-cleavage is 0.04.

Regarding C23A U38A C45U C46A, the self-cleavage stood at 0.16.

In the case of G22A C31G U32A, the self-cleavage amounted to 0.04.

As to C23A A26U G35A C37U, the self-cleavage was determined as 0.03.

In the case of A24C A25U G33A, the self-cleavage was determined as 0.18.

For the variant C23A G27C G33U G35C C42G G44A, the self-cleavage came out at 0.03.

For the variant G22U C23A C46G, the self-cleavage worked out at 1.31.

Consider G22A A24G G29U, for which the self-cleavage came to 0.91.

For C23A U38C C45U, the self-cleavage is 0.37.

Turning to G21C C23U C42G, the self-cleavage is 0.02.

Turning to G21U G36A U43C, the self-cleavage was found to be 0.08.

On to G21U C37G A39G, for which the self-cleavage was found to be 0.02.

For G21U G33U U38A, the self-cleavage was found to be 0.18.

With G22U A41C C46U, the self-cleavage was determined as 0.08.

On to C23A G35A G36A C37G A39G, for which the self-cleavage turned out to be 0.09.

As to G21U U34A G40C, the self-cleavage is 0.05.

Regarding C23U U38C C45A, the self-cleavage was 0.26.

Take G22A C23A U28A G35C: the self-cleavage was 0.18.

Turning to G21U A26C G36U, the self-cleavage amounted to 0.05.

Take C23A G35U U38A: the self-cleavage turned out to be 0.03.

On to C23A A25G U28C G36C, for which the self-cleavage worked out at 0.01.

Take C23U G29U A39U: the self-cleavage turned out to be 0.61.

For the variant G22U G27A C37A C46U, the self-cleavage was 0.02.

As for C23G G30C G40U G44C C45A, the self-cleavage amounted to 0.

As for G21U U34C G36A C46U, the self-cleavage amounted to 0.34.

In the case of C23G A24G U32G G44U, the self-cleavage was 0.04.

G21U G27C G35U G36U: the self-cleavage is 0.04.

For the variant C23A C31U G35A C46U, the self-cleavage amounted to 0.02.

G22U G29A G44U: the self-cleavage worked out at 0.2.

G22C G30C C46A: the self-cleavage was determined as 0.42.

Take C23A G35A A39C: the self-cleavage was determined as 0.08.

In the case of G22U A24U G27A C37A, the self-cleavage is 0.03.

For G21C C23G A24C A26C G29C, the self-cleavage amounted to 1.68.

Take G21C G22U A25C: the self-cleavage worked out at 0.6.

In the case of C23A C31U A41C G44U, the self-cleavage was found to be 0.01.

With G21U A25G A26G, the self-cleavage was 0.11.

Take G22C U28A C31A C45U: the self-cleavage was 0.1.

Consider G22A G35A C45U, for which the self-cleavage amounted to 0.25.

As to G22A A24G A25G C37A, the self-cleavage worked out at 0.03.

As for G22C G33C U34C, the self-cleavage stood at 0.04.

Take C23A G27U G29U G36U: the self-cleavage came out at 0.05.

Take G22C G29U U34C G36A: the self-cleavage came out at 0.04.

In the case of G21U C23G C37G, the self-cleavage was found to be 0.04.

On to G22U U34G G36C, for which the self-cleavage came out at 0.04.

For the variant G21U G40A C42A, the self-cleavage is 0.15.

Regarding G22A G29U U38C A39U, the self-cleavage is 0.67.

For the variant G21C C31U C42A, the self-cleavage is 0.

On to A24C C31G U34A G40C C46U, for which the self-cleavage worked out at 0.02.

On to G22C A26C C42U, for which the self-cleavage was found to be 0.25.

Regarding G22U G27C G29A U32A G33U C45G, the self-cleavage was found to be 0.02.

As for C23G A25G A39C, the self-cleavage amounted to 0.04.

In the case of C23U U32A U38G A39G, the self-cleavage came out at 0.04.

As for G22A C23A A25C G36U, the self-cleavage was 0.06.

Take C23U G27C G33C A41C: the self-cleavage is 0.03.

Regarding G22C A26U G29U G36C C37U, the self-cleavage came out at 0.01.

As for C23U A25U G33U G44C, the self-cleavage came out at 0.04.

Consider C23U G29C G30U G36C, for which the self-cleavage worked out at 0.06.

For the variant A24C A26C G44A, the self-cleavage worked out at 0.07.

Take C23G G35U A39C: the self-cleavage was 0.18.

In the case of G21U G44C C45A, the self-cleavage was found to be 0.02.

Consider G22C A24U A25G C31U G35U, for which the self-cleavage stood at 0.03.

Take G22C A26U C31A: the self-cleavage turned out to be 0.1.

Take C23A G27C U34C: the self-cleavage is 0.39.

Consider G22C C23A G29U C31G G33U, for which the self-cleavage is 0.02.

For the variant A24C A26G C37U, the self-cleavage amounted to 0.02.

Consider G21C G40C G44U, for which the self-cleavage came out at 0.02.

On to G22U A26G G30A G36C U38C A39U A41C, for which the self-cleavage stood at 0.07.

G22U A25C U43A: the self-cleavage amounted to 0.15.

As for C23A A24C G36U C45U, the self-cleavage came out at 0.89.

For the variant G22C C23A G44C, the self-cleavage turned out to be 0.45.

For C23G A24U U28C G44C C46A, the self-cleavage was 0.23.

For G22A G27C C31A C46U, the self-cleavage amounted to 0.04.

Take G21C G22U U38A: the self-cleavage was 0.01.

As for G21C G35C C46A, the self-cleavage amounted to 0.18.

Regarding C23U G27C G40A A41U C45U, the self-cleavage was determined as 0.13.

Turning to C23U C37U C46U, the self-cleavage came to 0.01.

For C23G G29U C37G, the self-cleavage came out at 0.04.

In the case of G21U G22A U32A, the self-cleavage was 0.19.

Turning to G22A C23U A26G, the self-cleavage turned out to be 0.21.

Turning to G21C G22U C46G, the self-cleavage amounted to 0.36.

Consider G22U A25C U38G G40U, for which the self-cleavage came out at 0.04.

On to G21U G29U G40U, for which the self-cleavage is 0.04.

On to G21U A26G C42G, for which the self-cleavage came to 0.03.

Consider C23A C42U C46G, for which the self-cleavage came to 0.24.

For the variant C23U G29U G44U, the self-cleavage is 0.2.

Turning to G22A G35U U43C C45U, the self-cleavage was 0.

For G22A G33U G36A, the self-cleavage amounted to 0.08.

As to C23U G29C U43C, the self-cleavage turned out to be 0.02.

With G22U G29A C46G, the self-cleavage was found to be 0.49.

Turning to G22C C31A G33U, the self-cleavage amounted to 0.19.

With G22A U28A U34A C46A, the self-cleavage was 0.07.

With G22A G29U C45U, the self-cleavage is 1.

Take G22A U34A A39U U43C: the self-cleavage amounted to 0.02.

On to C23A A24U C37A, for which the self-cleavage came out at 0.02.

Turning to G22A U34A U43C, the self-cleavage was 0.05.

G21U C31A G35C: the self-cleavage came out at 0.02.

Regarding G22U U34C G35U, the self-cleavage is 0.08.

G22C G30U C37G: the self-cleavage is 0.02.

With C23G A24C C42G G44A C45G, the self-cleavage was 0.02.

Take C23A C31A U34C: the self-cleavage amounted to 0.04.

G22C U32C C45A: the self-cleavage is 0.12.

G22C A41G G44A: the self-cleavage is 0.03.

Take G22C A24U G27C: the self-cleavage is 0.74.

As to G22C A26U C37A, the self-cleavage came to 0.02.

With C23U G27A U43C, the self-cleavage was found to be 0.25.

As to C23A G36U C46U, the self-cleavage is 0.08.

With G21C G27A C31U U38G, the self-cleavage was 0.02.

In the case of C23A G30U G44U, the self-cleavage was 0.15.

Regarding G21C U38A A41C, the self-cleavage turned out to be 0.02.

For C23G C31U G35A C45G, the self-cleavage amounted to 0.02.

For G22U G36A C46G, the self-cleavage worked out at 0.34.

As for G22A C31U C46A, the self-cleavage was 0.31.

Take G21U G40U A41C G44U: the self-cleavage worked out at 0.11.

Consider G22U C31G G40U U43C, for which the self-cleavage came to 0.47.

In the case of C23G A26U G35C, the self-cleavage was determined as 0.

In the case of G22A G30U U34C, the self-cleavage was determined as 0.05.

C23G A25G G35U C45A: the self-cleavage stood at 0.01.

Turning to C23A A26U C45G, the self-cleavage came to 2.8.

On to G22U A26U G44A, for which the self-cleavage came to 0.46.

Regarding C23G G33A C37G U38A A39U, the self-cleavage is 0.04.

As for G22U G29A G30C G35A C37G, the self-cleavage came to 0.05.

Turning to G22C G33U C37G, the self-cleavage came to 0.12.

On to G21U G30U C45U, for which the self-cleavage came out at 0.88.

With C23A A26U G35C, the self-cleavage was determined as 0.38.

In the case of C23U G40U C42A, the self-cleavage turned out to be 0.16.

With C23U A41U G44A, the self-cleavage was found to be 0.3.

Take C23U A41U G44C: the self-cleavage worked out at 0.37.

In the case of G21U G22U C31U G36A, the self-cleavage amounted to 0.17.

With G22C U32A C46U, the self-cleavage is 0.

For the variant G21C C31G G40A, the self-cleavage was 0.02.

With G22C U28C G30C, the self-cleavage came out at 1.39.

On to C23U A26G C31U U32C C46U, for which the self-cleavage turned out to be 0.01.

On to C23U U34A G36C, for which the self-cleavage amounted to 0.05.

For the variant G21C C23G G27U C31U G40A C45U, the self-cleavage came to 0.01.

For G22A C23G A25C, the self-cleavage was 0.15.

Consider C23A C42G C45A, for which the self-cleavage is 0.04.

Take G22U G30U U34A C37A: the self-cleavage was 0.02.

In the case of G22U A24U A25G, the self-cleavage came to 1.09.
